# This is one part of the list.
# System: S. aureus RN4220
# Experiment: growth inhibition call (relative growth <= 0.2)
# Details: 50 µM
row,SMILES,growth inhibition call
1,Cc1ccc(S(=O)(=O)N(C)C[C@@H]2Oc3ccc(NS(=O)(=O)c4ccccc4)cc3CC(=O)N([C@@H](C)CO)C[C@H]2C)cc1,inactive
2,O=C([O-])C1=C(CSc2nnnn2CS(=O)(=O)[O-])CSC2C(NC(=O)C(O)c3ccccc3)C(=O)N12.[Na+].[Na+] (stereo not drawn),active
3,NCC[C@H]1CC[C@H](NC(=O)C2CCCCC2)[C@H](CO)O1,inactive
4,COc1ccc(NC(=O)N(C)C[C@@H]2Oc3ccc(NS(=O)(=O)c4c(C)noc4C)cc3CC(=O)N([C@@H](C)CO)C[C@@H]2C)cc1,inactive
5,C[C@@H]1CCCCO[C@H](CN(C)Cc2ccccc2)[C@@H](C)CN([C@@H](C)CO)C(=O)c2cc(NC(=O)CCC(F)(F)F)ccc2O1,inactive
6,C[C@@H]1CN([C@@H](C)CO)C(=O)c2cc(NC(=O)CCCN(C)C)ccc2O[C@H]1CN(C)Cc1ccc2c(c1)OCO2,inactive
7,COc1cccc(-c2ccc3n(c2=O)C[C@@H]2[C@@H](CO)[C@H](C(=O)NCC4CC4)[C@H]3N2S(C)(=O)=O)c1,inactive
8,COc1ccc(CNC(=O)C[C@@H]2C[C@@H]3c4cc(NC(=O)NC5CCCC5)ccc4O[C@@H]3[C@@H](CO)O2)cc1,inactive
9,CC1=C(/C=C/C(C)=C/C=C/C(C)=C\C(=O)O)C(C)(C)CCC1,inactive
10,COc1ccc(NC(=O)Nc2ccc3c(c2)C(=O)N([C@H](C)CO)C[C@H](C)[C@@H](CN(C)C(=O)Nc2ccccc2)OCCCC[C@@H](C)O3)cc1,inactive
11,C[C@H]1CN([C@@H](C)CO)C(=O)Cc2cc(NS(C)(=O)=O)ccc2O[C@@H]1CN(C)C(=O)Nc1ccccc1,inactive
12,CN1CCN(C(=O)C[C@H]2CC[C@@H]3[C@@H](COc4ccc(NC(=O)C5CCCCC5)cc4C(=O)N3C)O2)CC1,inactive
13,C=C(C)CNc1nc(-c2ccccc2)c(-c2ccccc2)s1,inactive
14,CC(=O)OC1CC(OC(C)=O)C2(C)C(CC(O)C3(C)C2CCC2(C)C(c4ccoc4)OC(=O)C4OC423)C1(C)C (stereo not drawn),inactive
15,C[C@H]1CN([C@@H](C)CO)S(=O)(=O)c2ccc(C#Cc3ccccc3)cc2O[C@@H]1CN(C)S(C)(=O)=O,inactive
16,COc1ccc2c3c([nH]c2c1)[C@@H](CO)N(C[C@]13CCN(CC1)C(=O)c1cnccn1)C(=O)c1cnccn1,inactive
17,CCOc1cc2ncc(C#N)c(Nc3ccc(OCc4ccccn4)c(Cl)c3)c2cc1NC(=O)/C=C/CN(C)C,inactive
18,COc1ccc(C2Sc3ccccc3N(CCN(C)C)C(=O)C2OC(C)=O)cc1.Cl (stereo not drawn),inactive

# From the antibiotic and cytotoxicity screens of Wong et al. (2023)
